Assays:
GFP-C1QTNF4 (aa 17–329) = GFP-C1QTNF4 (aa 17–329) (human, UniProt Q9BXJ3 17-329); experiment: flow cytometry on cells
[1] = molecular target: GFP-C1QTNF4 domain 2 (GFP-d2, aa 168–329) (human, UniProt Q9BXJ3 168-329); experiment: co-IP

Sequence of GFP-C1QTNF4 (aa 17–329) (Q9BXJ3 17-329): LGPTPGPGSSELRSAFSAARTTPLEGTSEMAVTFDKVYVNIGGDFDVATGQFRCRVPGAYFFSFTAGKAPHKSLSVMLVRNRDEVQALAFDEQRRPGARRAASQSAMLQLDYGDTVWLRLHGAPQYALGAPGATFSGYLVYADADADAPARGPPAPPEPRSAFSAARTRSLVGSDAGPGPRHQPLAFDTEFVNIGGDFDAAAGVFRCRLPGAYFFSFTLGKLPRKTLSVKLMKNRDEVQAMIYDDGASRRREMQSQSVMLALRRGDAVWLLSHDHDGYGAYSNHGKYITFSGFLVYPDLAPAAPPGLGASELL

B1: Nucleolin construct R4G ([…]) (domain or fragment)
chain: not shown
- binding result (GFP-C1QTNF4 (aa 17–329)): binds
- binding result [1]: binds

Reference: publication PMC8042453 (The Journal of Biological Chemistry, 2021)
